Test results published in PubChem BioAssay AID1458 (National Center for Advancing Translational Sciences (NCATS), 2008).
About 5,900 (2.8%) of roughly 210,000 compounds were called active. Inconclusive means that the source gave no clear call. Such entries were picked first, then a sample of the others. The call rests on the fitted dose curve; in most records, active means well fitted activation curve with a large enough effect; inconclusive means small, poorly fitted or top-dose-only effect; inactive means no such curve, though single readings can be large or run the other way. Potencies of inconclusive entries are doubtful fits and often do not repeat.

assay: qHTS Assay for Enhancers of SMN2 Splice Variant Expression; details: HEK293 SMN2-luciferase splicing reporter, luminescence, 30-36 h; activity change, positive = activation: at 46.1 µM (top of the series); further: nearly all actives have a fitted effect of over 55% in size; on activity change, positive = activation: % of control where 0% means no effect
Procedure, shortened: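 HEK293 cells carry an SMN2 […]–luciferase reporter in which exon 7 inclusion puts luciferase in frame. Cells were plated 10-12 h before compound addition, then incubated 30-36 h at 37C. ONE-Glo luminescence was read; sodium butyrate at 4.5 mM final served as control.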
Potency means the concentration at half of the fitted maximal effect; tags describe the fitted curve by direction and shape.

Row | Compound | Potency | activity change, positive = activation
1 | COc1ccc(C(=O)NC(=S)Nc2ccc3c4c(cccc24)CC3)cc1OC | inconclusive: 0.0631 µM [activator, partial curve, poor fit] | 
2 | CCN(CC)c1nc(N)c2c(N)n(-c3ccccc3C)c(=S)c(C#N)c2c1C#N | inconclusive: 5.62 µM [activator, partial curve, poor fit] | 
3 | COc1cc2c(cc1NC(=O)C1CCCO1)oc1ccccc12 (stereo not given) | active: 25.1 µM | 
4 | COc1ccc(N2C(=O)CSC2c2ccc3c(c2)OCO3)cc1 (stereo not given) | inconclusive: 0.501 µM [activator, full curve, poor fit] | 
5 | CCCC(=O)Nc1ccc(-c2nc3cc(C)ccc3o2)cc1 | active: 1.26 µM | 
6 | O=C(/C=C\c1ccccc1[N+](=O)[O-])Nc1ccccc1 | active: 17.8 µM | 
7 | COc1cc2cc(CN(Cc3cccs3)C(=S)Nc3ccc(C)cc3)c(=O)[nH]c2cc1OC | inconclusive: 17.8 µM [activator, partial curve, poor fit] | 
8 | CCNC(=O)CC1C(=O)N(c2cccc(OC)c2)C(=O)N1Cc1ccc(OC)c(OC)c1 (stereo not given) | inactive | 
9 | O=C(Nc1ccccc1)OCc1cc(-c2ccccc2Cl)on1 | inconclusive: 14.1 µM [activator, single point] | 
10 | O=C(COC(=O)c1ccccc1Cl)NC(=O)NCc1ccccc1 | inconclusive: 3.55 µM [activator, partial curve] | 
11 | CC(=O)Nc1cc(-c2ccc(Cl)cc2)nn1-c1ccccc1 | inconclusive: 1.12 µM [activator, full curve] | 
12 | O=C1CCCC2=C1C(c1ccc(O)c(O)c1)c1c(ccc3ncccc13)N2 (stereo not given) | inconclusive: 14.1 µM [activator, partial curve, poor fit] | 
13 | COc1cccc(NC(=O)Cn2c(=O)n(-c3ccc(C)cc3)c(=O)c3ccc(C(=O)NCc4ccco4)cc32)c1 | inactive | 
14 | CCN(CC)c1ccc(NC(=O)c2cccc(C)c2OC)c(C)c1 | inconclusive: 35.5 µM [activator, single point] | 
15 | CCCc1cc(C(=O)Nc2nccs2)cs1 | active: 3.98 µM | 
16 | COc1ccc(-c2cc(O)cc(O)c2)cc1 | inconclusive: 35.5 µM [activator, single point] | 
17 | CC1CCN(C(=O)Cn2cc3c(n2)CCCC3)CC1 | inconclusive: 35.5 µM [activator, single point] | 
18 | CCN(CC)S(=O)(=O)c1ccc(-c2nnc(SCC(=O)Nc3cc(OC)cc(OC)c3)o2)cc1 | inconclusive: 0.0501 µM [activator, full curve, poor fit] | 
19 | COc1ccc(NC(=O)CSc2nc(NS(=O)(=O)c3ccccc3)cc(=O)[nH]2)cc1 | inconclusive: 0.0035 µM [activator, full curve, poor fit] | 
20 | CC(C(=O)N1CCOCC1)(c1ccccc1)c1ccccc1 | inconclusive: 7.08 µM [activator, full curve, poor fit] | 
21 | COc1cccc(NC(=O)C(Cc2ccccc2)NS(=O)(=O)c2ccc3c(c2)oc(=O)n3C)c1 (stereo not given) | inactive | 
22 | CC(=O)c1cccc(NC(=S)NC(=O)c2cccc(C)c2)c1 | active: 15.8 µM | 
23 | Cc1cc(C)c2cc(CN(CCO)Cc3nnnn3Cc3ccc(F)cc3)c(=O)[nH]c2c1 | inconclusive: 3.16 µM [activator, partial curve, poor fit] | 
24 | O=C(COc1cccc2ccccc12)Nc1nc2ccccc2[nH]1 | inactive | 

Row | Compound | Potency | activity change, positive = activation
25 | NCCSCc1ccccc1Cl |  | inactive: -28.2% [at 9.22 µM]
26 | c1ccc(Cc2nnc(-c3ccccc3)o2)cc1 | inconclusive: 20 µM [activator, partial curve, poor fit] | 
27 | O=C(N/N=C1\CCc2ccccc21)c1ccncc1 | active: 20 µM | 
28 | CCC(C)(C)n1nnnc1C(c1ccccc1)N1CCc2ccccc2C1 (stereo not given) | inconclusive: 3.55 µM [activator, partial curve] | 
29 | Cc1cccc(NC2SC(=O)N(c3ccccc3)C2=O)c1 (stereo not given) | inconclusive: 3.16 µM [activator, full curve, poor fit] | 
30 | COc1ccc(NS(=O)(=O)c2cc(NC(=O)/C=C/c3cc(OC)ccc3OC)ccc2N2CCCCC2)cc1 | inconclusive: 0.224 µM [activator, full curve, poor fit] | 
31 | Cc1ccc(Cl)cc1N1CCN(C(CC(C)C)c2nnnn2CC2CCCO2)CC1 (stereo not given) | inconclusive: 0.0126 µM [activator, full curve, poor fit] | 
32 | CCOc1cccc2c1OC(c1cc(OC)c(OC)c(OC)c1)N1N=C(c3ccc(C)o3)CC21 (stereo not given) | inconclusive: 35.5 µM [activator, single point] | 
33 | COc1ccc(C(=O)OCCc2ccc(O)cc2)cc1 | inconclusive: 0.355 µM [activator, partial curve, poor fit] | 
34 | Cc1csc(NC(=O)c2ccccc2C(=O)O)n1 | inactive | 
35 | COCCNC(=O)c1c(NC(=O)c2nc(SC)ncc2Cl)sc2c1CCCC2 | inconclusive: 35.5 µM [activator, single point] | 
36 | CCc1ccccc1N(C)C(=O)c1cc2c(=O)oc3ccccc3c2s1 | inactive | 
37 | Cc1cccn2cc(-c3ccc(F)cc3)cc12 | inactive | 
38 | CCCCCn1c(C(C)NC(=O)c2ccccc2)nc2ccccc21 (stereo not given) | inactive | 
39 | O=[N+]([O-])c1cccc(N/N=C/c2cc([N+](=O)[O-])ccc2O)c1 | inactive | 
40 | COc1ccc(NC(=O)Cn2c(SCc3cc(C)ccc3C)nc3ccncc32)c(OC)c1OC | inactive | 
41 | COc1ccc(Nc2ncc(C(=O)O)c3ccccc23)cc1 | inconclusive: 35.5 µM [activator, partial curve] | 
42 | O=C(CSc1nnc(CNC(=O)c2cccc(F)c2)n1-c1ccccc1)Nc1ccccc1F | inconclusive: 5.62 µM [activator, single point] | 
43 | Cc1cc(Cl)ccc1NC(=O)C(=O)NCc1ccco1 | inconclusive: 17.8 µM [activator, partial curve, poor fit] | 
44 | O=C1NC(=Nc2ccc(Cl)cc2)/C(=C/c2ccco2)S1 | inconclusive: 8.91 µM [activator, partial curve, poor fit] | 
45 | CCCc1cc(C(=O)Nc2ccccc2C(=O)OC)no1 | inconclusive: 12.6 µM [activator, single point] | 
46 | O=C(CSc1nnc2sc3ccccc3n12)c1ccco1 | active: 11.2 µM | 
47 | CCOCCCNC(=O)C1CCCCN1S(=O)(=O)c1ccc(F)cc1 (stereo not given) | inconclusive: 35.5 µM [activator, single point] | 
48 | O=C(Nc1cc2ccccc2oc1=O)c1ccccc1 | active: 0.891 µM | 

Row | Compound | Potency | activity change, positive = activation
49 | FC(F)(F)c1cccc(N/N=C/c2ccccc2)c1 | inconclusive: 10 µM [activator, partial curve] | 
50 | CC1CCN(C(=S)c2ccc(-c3ccc(Cl)cc3Cl)o2)CC1 | inconclusive: 10 µM [activator, partial curve, poor fit] | 
51 | COc1ccc(-c2ccc(=O)n(CC(=O)Nc3ccc(C(=O)NC4CC4)cc3)n2)cc1OC | inconclusive: 35.5 µM [activator, single point] | 
52 | Clc1ccc(Sc2cc(Cl)c(-c3ccccc3)nn2)cc1 | inconclusive: 0.708 µM [activator, partial curve] | 
53 | COc1ccc2c(c1)Cc1sc(NC(=O)c3cccs3)nc1-2 | inconclusive: 11.2 µM [activator, partial curve, poor fit] | 
54 | COc1ccccc1OCCSc1nc(N)cc(N)n1 | inconclusive: 35.5 µM [activator, single point] | 
55 | CCN(Cc1ccccc1)S(=O)(=O)c1nc2nc(C)c(C)c(C)n2n1 | inconclusive: 5.62 µM [activator, partial curve] | 
56 | COc1ccc(NC(=O)c2ccc(CNc3c(NC4CCCCC4)c(=O)c3=O)cc2)c(OC)c1 | inconclusive: 2.82 µM [activator, full curve] | 
57 | Cc1ccc(-c2nnc(SCc3ccccc3C)o2)cc1 | inconclusive: 28.2 µM [activator, single point] | 
58 | CCc1ccc(C(=O)c2cn(CC(=O)Nc3ccc4c(c3)OCO4)c3cc(OC)c(OC)cc3c2=O)cc1 | inactive | 
59 | O=C(C/C=N\OCc1ccc([N+](=O)[O-])cc1)Nc1ccc(Br)cc1 | inactive | 
60 | CCC(=O)N1N=C(c2ccc(C)o2)CC1c1ccc(N(C)C)cc1 (stereo not given) | inactive | 
61 | CCc1cc(=O)oc2c3c(c(Cl)cc12)OCN(Cc1cccc(OC)c1)C3 | inactive | 
62 | CN1N=C(/C=C/c2ccccc2)CCC1=O | inconclusive: 25.1 µM [activator, single point] | 
63 | Cc1ccc(-c2nc(C)sc2CC(=O)Nc2nnc(C)s2)cc1 | inactive | 
64 | CCc1nc(-c2cc3ccc(C)cc3[nH]c2=O)no1 | inconclusive: 0.0316 µM [activator, full curve, poor fit] | 
65 | O=C(CO/N=C/c1ccc2c(c1)OCO2)Nc1cccc(Br)c1 | inconclusive: 0.0501 µM [activator, full curve, poor fit] | 
66 | O=C(Nc1cc(=O)c2ccccc2o1)N1CCCCC1 | inconclusive: 0.0631 µM [activator, partial curve, poor fit] | 
67 | CN(C)c1ccc(C(CNS(=O)(=O)c2ccc(F)cc2)c2c[nH]c3ccccc23)cc1 (stereo not given) | inconclusive: 35.5 µM [activator, single point] | 
68 | Clc1ccccc1SCc1nc2ccccc2[nH]1 | inconclusive: 14.1 µM [activator, partial curve, poor fit] | 
69 | COc1ccc(OCc2cccc(C(=O)Nc3cc(C)on3)c2)cc1 | active: 0.199 µM | 
70 | COc1cc2c(cc1OC)/C(=C/c1ccc(Cl)cc1)C(=O)OC2 | inactive | 
